Assay [1] has as its target rat glucocorticoid receptor isoform GRα, full length, with AF1 mutations E219K/F220L/W234R (Y2H bait) (rat) (UniProt P06536). Briefly: two-hybrid; LexA-GR baits against preys on selective plates with hormone (desoxycorticosterone: 0.5 or 1 μM for GRα and 0.25 or 0.5 μM for GRγ in the screens; 1 μM in Fig 1B; 300 nM in Fig 1D,E); screen and re-tests in fresh yeast cells.
For assay [2] the target is unchanged. As to the kind of experiment: two-hybrid; the same LexA-GR baits and preys on selective plates in the absence of hormone.
In assay [3] the target is protein A tagged GRα (co-IP) (rat) (UniProt P06536). Briefly: co-IP; luciferase-based co-IP; PA-tagged GR precipitated from cleared T-Rex 293 cell extract in IgG-coated microtiter plates, 1 h at 4°C; firefly-V5-tagged partner read by luciferase activity, as fold change over protein A only; cells treated for 1 h with 1 μM dexamethasone or ethanol vehicle.

The chains behind the UniProt entries cited, without tags or fusion partners. Where a name states a change or a piece, a line headed by the entry shows the natural chain unless it says otherwise.
UniProt P06536: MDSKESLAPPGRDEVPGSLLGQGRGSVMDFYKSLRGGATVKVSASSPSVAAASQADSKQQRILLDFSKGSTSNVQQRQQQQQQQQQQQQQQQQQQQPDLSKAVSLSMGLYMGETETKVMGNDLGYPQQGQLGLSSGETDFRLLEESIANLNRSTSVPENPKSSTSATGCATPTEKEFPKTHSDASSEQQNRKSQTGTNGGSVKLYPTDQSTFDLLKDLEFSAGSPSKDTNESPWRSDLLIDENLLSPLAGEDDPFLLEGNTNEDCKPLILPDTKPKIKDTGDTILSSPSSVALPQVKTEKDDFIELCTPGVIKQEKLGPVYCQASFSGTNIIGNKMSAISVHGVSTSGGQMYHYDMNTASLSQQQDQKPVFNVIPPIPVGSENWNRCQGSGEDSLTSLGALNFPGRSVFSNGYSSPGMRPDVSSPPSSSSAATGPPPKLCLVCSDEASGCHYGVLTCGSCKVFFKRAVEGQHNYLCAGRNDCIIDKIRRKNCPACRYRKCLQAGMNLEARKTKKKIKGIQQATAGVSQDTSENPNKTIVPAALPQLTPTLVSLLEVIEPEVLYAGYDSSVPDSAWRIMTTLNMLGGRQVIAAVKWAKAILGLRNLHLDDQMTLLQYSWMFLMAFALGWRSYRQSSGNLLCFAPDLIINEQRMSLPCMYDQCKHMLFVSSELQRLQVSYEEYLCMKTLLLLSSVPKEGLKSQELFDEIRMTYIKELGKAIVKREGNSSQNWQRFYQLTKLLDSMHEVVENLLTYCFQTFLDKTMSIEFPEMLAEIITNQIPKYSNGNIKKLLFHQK
UniProt Q9P0M6: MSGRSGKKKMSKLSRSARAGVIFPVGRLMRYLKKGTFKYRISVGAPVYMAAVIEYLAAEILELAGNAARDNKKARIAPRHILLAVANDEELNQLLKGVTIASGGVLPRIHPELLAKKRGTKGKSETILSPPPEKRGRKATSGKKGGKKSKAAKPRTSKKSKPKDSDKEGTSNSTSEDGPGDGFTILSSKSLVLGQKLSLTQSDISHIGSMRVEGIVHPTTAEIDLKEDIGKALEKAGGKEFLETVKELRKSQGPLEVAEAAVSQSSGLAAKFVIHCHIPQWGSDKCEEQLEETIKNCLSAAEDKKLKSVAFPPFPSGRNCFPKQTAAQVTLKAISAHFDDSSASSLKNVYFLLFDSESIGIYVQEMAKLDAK

No constants are given. Whether binding was seen depends on the method and setting. For some assays here: Binding seen in cells or lysates may run through a third protein. Some results given as binding are weak or reduced against the parent protein; the word gives no strength. For some assays here: Where a sequence is shown, tags or fusion partners need not be part of it.

Regarding “histone variant macroH2A2 (Y2H prey) (from UniProt Q9P0M6 1-372)”, the binding entry was “binds” in assay [1] and “no binding (condition: without hormone)” in assay [2].

B1: luciferase-BATF3 fusion protein (firefly-V5-tagged BATF3, co-IP) (protein, UniProt Q9NR55 1-127)
chain: MSQGLPAAGSVLQRSVAAPGNQPQPQPQQQSPEDDDRKVRRREKNRVAAQRSRKKQTQKADKLHEEYESLEQENTMLRREIGKLTEELKHLTEALKEHEKMCPLLLCPMNFVPVPPRPDPVAGCLPR
Take B1: in assay [3], the binding result is “binds”.

B2: Basic Leucine Zipper ATF-Like Transcription Factor 3 (Y2H prey) (protein, UniProt Q9NR55 1-127)
chain: B1 chain
With B2, the binding result in assay [1] was “no binding”.

B3: firefly-V5-tagged JDP2 (Jun dimerization protein-2, co-IP) (protein, UniProt Q8WYK2-2 1-174)
chain: MVAGWPATPPAMMPGQIPDPSVTTGSLPGLGPLTGLPSSALTVEELKYADIRNLGAMIAPLHFLEVKLGKRPQPVKSELDEEEERRKRRREKNKVAAARCRNKKKERTEFLQRESERLELMNAELKTQIEELKQERQQLILMLNRHRPTCIVRTDSVKTPESEGNPLLEQLEKK
Take B3: in assay [3], the binding entry is reported as “binds”.
